# Laboratory results reported in PubChem BioAssay AID686978 (National Center for Advancing Translational Sciences (NCATS), 2013).
# Where “and” joins values, the source holds several entries; their conditions need not be identical. Equal entries are not always repeated. About 64,000 (15%) of roughly 420,000 compounds were called active. Inconclusive means that the source gave no clear call. Such entries were picked first, then a sample of the others. Calls come from the whole dose curve; as a rule, active = well fitted inhibition curve with a large enough effect; inconclusive = small, poorly fitted or top-dose-only effect; inactive = flat fitted curve, though single readings scatter. Potencies of inconclusive entries are doubtful fits and often do not repeat.
# Assay: qHTS for Inhibitors of human tyrosyl-DNA phosphodiesterase 1 (TDP1): qHTS in cells in absence of CPT; note: nearly all actives have a fitted effect of over 55% in size
# Details: DT40 Tdp1-/- hTDP1 cells, no CPT, ATP luminescence, 48 h; activity change, negative = growth inhibition: at 46.2 µM (top of the series)
# How it was run: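 Stably hTDP1-transfected Tdp1-null chicken DT40 cells were treated with library compounds minus camptothecin and grown for at least 48 hr at 37 °C, after which cellular ATP was quantified by luminescence.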
# % is set by controls: 0 for no effect and ±100 for the full control effect; potency is the fitted concentration of half-maximal effect; tags give direction and shape of the fitted curve.
Structure (SMILES),"activity change, negative = growth inhibition",Potency
O=c1[nH]ncc2c3ccccc3n(Cc3ccccc3F)c12,inconclusive: -30.5% [inhibitor],–
Cc1ccc(N2CC(NC(=O)c3ccco3)CC2=O)cc1C (centres undefined),–,inactive
CCCC[C@@H]1CNC(=S)N1CCc1cccc(F)c1,–,"inconclusive: 23.1 µM [inhibitor, single point]"
CC(=O)N1c2c(cc(Br)cc2S(=O)(=O)N2CCN(c3ccccc3F)CC2)CC1C (centres undefined),–,"inconclusive: 29.1 µM [inhibitor, single point]"
COc1ccc(NS(=O)(=O)c2cc([N+](=O)[O-])ccc2N/N=C/c2c(C)[nH]c3ccccc23)cc1,–,active: 23.1 µM
O=C(Nc1cccc2ncccc12)C12CC3CC(CC(C3)C1)C2,–,"inconclusive: 20.6 µM [inhibitor, single point]"
COc1ccc(OCCSc2nnc(Cc3cccc4ccccc34)n2N)cc1,–,"inconclusive: 25.9 µM [inhibitor, single point]"
CCOC(=O)c1cc(-c2ccc(F)cc2)n(CCC(=O)NCc2ccccc2OC)c1C,–,"inconclusive: 23.1 µM [inhibitor, single point]"
O/C=c1\ccc2cccc3nc(C(F)(F)F)nc1c23,–,active: 20.6 µM
O=C(Cn1c(-c2cncs2)nc2ccccc21)NCc1ccccc1,–,inactive
O=C(Cn1ncc2c([nH]c3ccccc32)c1=O)NCc1cccc(Cl)c1,–,inactive
CCOc1ccc(-c2nnc(-c3ccco3)o2)cc1OCC,–,"inconclusive: 29.1 µM [inhibitor, partial curve, poor fit]"
Nc1[nH]c(C(=O)c2ccccc2)c(-c2ccccc2Br)c1C(=O)c1ccccc1,–,"inconclusive: 18.4 µM [inhibitor, single point]"
CC(C)S(=O)(=O)N1CCN(c2ccnc3cc(Cl)ccc23)CC1,–,"inconclusive: 20.6 µM [inhibitor, partial curve]"
CCc1ccccc1NC(=O)C(C)n1nc(-c2ccc(C)c(C)c2)ccc1=O (centres undefined),–,"inconclusive: 23.1 µM [inhibitor, single point]"
COCCN(CCOC)Cc1c(O)ccc2c1O/C(=C\c1ccco1)C2=O,–,"inconclusive: 10.3 µM [inhibitor, partial curve]"
CCCCNC(=O)C1C(c2ccc(C(F)(F)F)cc2)=Nc2ccccc2N1C(C)=O (centres undefined),–,"inconclusive: 29.1 µM [inhibitor, single point]"
C[C@]12C=CC(=O)C=C1CC[C@@H]1C2C(O)C[C@@]2(C)C1CC[C@]2(O)C(=O)COC(=O)CCC(=O)NC(CC(=O)O)C(=O)O (some centres undefined),inconclusive: -31.8% [inhibitor],–
O=C(c1ccc([N+](=O)[O-])o1)N1CCN(c2nc3ccc(F)cc3s2)CC1,–,active: 23.1 µM
CC1=NOC(=O)/C1=C\c1ccc(-c2cc(Cl)ccc2Cl)o1,–,"inconclusive: 4.11 µM [inhibitor, partial curve, poor fit]"
Cc1ccc(NC(=S)NNC(=S)Nc2cccc(C(F)(F)F)c2)cc1,–,active: 29.1 µM
COc1ccc(-c2csc(N(CCCN(C)C)C(=O)c3ccccc3C)n2)cc1,–,active: 4.61 µM
O=C1CCC(C(=O)N2CCCC(N3CCN(c4cccc(C(F)(F)F)c4)CC3)C2)=NN1 (centres undefined),–,inactive

Structure (SMILES),"activity change, negative = growth inhibition",Potency
CCN(CC)c1cc(C)c2cc(NC(=O)c3ccc(Br)o3)ccc2n1,–,"inconclusive: 20.6 µM [inhibitor, single point]"
CC(=O)C[C@@H](O)CC(=O)[C@@H]1OC(=O)CCCCCCCc2ccccc21,–,inactive
COc1ccc(Cl)cc1NC(=O)N1CCC(CN2CCCCCC2)CC1,–,"inconclusive: 16.4 µM [inhibitor, single point]"
C=CCCC(=O)N1C[C@H]2CON(C)[C@H]2C[C@H]1c1cccc(Br)c1,–,inactive
N#CC(Cc1cc2ccccc2n1S(=O)(=O)c1ccccc1)OCc1ccccc1 (centres undefined),–,inactive
CC(C)(C)c1ccccc1OCCCCCNCCO,–,"inconclusive: 20.6 µM [inhibitor, single point]"
COc1ccc(C)cc1-n1nnnc1SCC(=O)c1cc(C)n(Cc2ccco2)c1C,–,"inconclusive: 23.1 µM [inhibitor, single point]"
CC(C)(C)OC(=O)N1CCC(NC(=O)c2nc[nH]c2C(=O)NCC(=O)OCc2ccccc2)CC1,–,"inconclusive: 13 µM [inhibitor, partial curve]"
O=[N+]([O-])c1ccccc1OCC(O)CN1CCN(CC(O)COc2ccccc2[N+](=O)[O-])CC1 (centres undefined),–,"inconclusive: 23.1 µM [inhibitor, single point]"
CCCn1c2ccccc2c2cnn(CC(=O)NCc3cc(OC)ccc3OC)c(=O)c21,–,"inconclusive: 23.1 µM [inhibitor, single point]"
CC(=O)C(C)Oc1ccc2c3c(c(=O)oc2c1)CCCCC3 (centres undefined),–,"inconclusive: 16.4 µM [inhibitor, single point]"
Cc1cccc(CN2C3=NCCCN3c3ccccc32)c1,–,active: 14.6 µM
Cc1ccc(C(=O)NC(NC(=S)Nc2ccc(S(N)(=O)=O)cc2)C(Cl)(Cl)Cl)cc1 (centres undefined),–,"inconclusive: 29.1 µM [inhibitor, single point]"
COc1ccc(CNC(=O)CN2C(=O)CSc3ccc(S(=O)(=O)N4CCCC4)cc32)cc1,–,"inconclusive: 6.51 µM [inhibitor, single point]"
COc1cc([N+](=O)[O-])c(C)cc1NC(=O)c1ccc(OC)c(OC)c1,–,"inconclusive: 11.6 µM [inhibitor, partial curve, poor fit]"
O=C(CSc1ccsc1[N+](=O)[O-])NCCc1ccc(Cl)cc1,–,inactive
CCOC(=O)c1cccc(NC(=O)C(Cc2ccccc2)NS(=O)(=O)c2cccc3nsnc23)c1 (centres undefined),–,active: 23.1 µM
COC(=O)c1ccc(CSc2nc3ccccc3c(=O)n2-c2cccc(OC)c2)o1,–,"inconclusive: 16.4 µM [inhibitor, single point]"
c1ccc(Nc2nc(Nc3ccccc3)nc(N3CCNCC3)n2)cc1,–,"inconclusive: 29.1 µM [inhibitor, single point]"
CCOc1cc(C(=O)Nc2ccccc2N2CCOCC2)ccc1OCC(=O)N1CCCCC1,–,"inconclusive: 14.6 µM [inhibitor, single point]"
C[C@H](NS(=O)(=O)c1ccccc1)C(=O)N1CCN(C(c2ccccc2)c2ccccc2)CC1,–,"inconclusive: 18.4 µM [inhibitor, single point]"
COc1cc2c(cc1OC)CN(C(=O)c1cccc([N+](=O)[O-])c1)CC2,–,"inconclusive: 25.9 µM [inhibitor, single point]"
O=C(C[n+]1ccccc1)N/N=C/c1cc(Br)ccc1F,–,inactive

Structure (SMILES),"activity change, negative = growth inhibition",Potency
COc1cc(CNCCc2ccc(F)cc2)ccc1OCc1ccc(Cl)nc1,–,active: 20.6 µM
CC(=O)N1c2ccc(Cl)cc2C2C=CCC2C1c1cccc2ccccc12 (centres undefined),–,"inconclusive: 25.9 µM [inhibitor, single point]"
CCOC(=O)c1[nH]c(C)c(C(=O)Nc2ccc(Cl)cc2)c1C,–,inactive
COc1ccc(-c2noc(CN3CCCCC3c3nccn3C)n2)cc1 (centres undefined),–,inactive
CCc1ccccc1OCCSc1nnc(-c2cc(OC)c(OC)c(OC)c2)o1,–,active: 18.4 µM
COc1cc2nc(Nc3ccc(F)cc3)nc(N)c2cc1OC,–,active: 4.61 µM
O=C(CN1C(=O)CCC1=O)c1ccc(-c2ccccc2)cc1,–,inactive
Cc1cc(OCC(=O)NC(C)c2ccccc2)ccc1[N+](=O)[O-] (centres undefined),–,active: 16.4 µM
CC1=NCCN1S(=O)(=O)c1cccc([N+](=O)[O-])c1,inconclusive: -35.4% [inhibitor],–
COC(=O)N/N=C/c1c[n+]([O-])c2ccccc2[n+]1[O-],–,active: 0.0422 µM
CCN1C(=O)[C@H]2[C@@H](c3ccc(OC)cc3)N[C@]3(CCCN(Cc4ccc(C)cc4)C3=O)[C@H]2C1=O,inconclusive: -35.9% [inhibitor],–
Cc1cc(=O)oc2c(C)c(OC(C)C(=O)NCC(O)c3ccccc3)ccc12 (centres undefined),–,inactive
CC(C(=O)NCc1ccccc1)n1c(CSCCOc2ccccc2)nc2ccccc21 (centres undefined),–,"inconclusive: 29.1 µM [inhibitor, single point]"
O=C(c1cc2ccccc2o1)N1CCCCCC1,–,inactive
COc1ccc(NC(=O)CN(C)S(=O)(=O)c2cccc3nsnc23)cc1,–,"inconclusive: 9.2 µM [inhibitor, partial curve] and inconclusive: 32.6 µM [inhibitor, single point]"
O=C(NNC(=O)c1cccc2ccccc12)c1ccccc1O,–,"inconclusive: 20.6 µM [inhibitor, single point]"
CC(=O)Nc1ccc(NC(=O)CSc2nnc(-c3cccs3)n2N)cc1,–,inactive
CCCN1C(=O)C(Cc2nc3ccccc3c(=O)n2C)c2ccccc21 (centres undefined),–,"inconclusive: 29.1 µM [inhibitor, single point]"
COc1ccc(N2C(=O)CC(n3c(CCCCO)nc4ccccc43)C2=O)cc1 (centres undefined),–,"inconclusive: 29.1 µM [inhibitor, single point]"
O=C(CSC1=Nc2ccccc2N=C(c2ccc(F)cc2)C1)NCc1ccc(Cl)cc1,–,"inconclusive: 29.1 µM [inhibitor, single point]"
Cc1cc(S(=O)(=O)NCC(c2ccc(N(C)C)cc2)N2CCOCC2)ccc1F (centres undefined),–,inactive
C[C@H](CO)N1C[C@H](C)[C@@H](CN(C)S(=O)(=O)c2ccc(F)cc2)Oc2ccc(NC(=O)Cc3cn(C)c4ccccc34)cc2C1=O,–,"inconclusive: 10.3 µM [inhibitor, partial curve, poor fit]"
CCC(=O)c1ccc(OCC(=O)Nc2ccc3c(c2)OCCO3)cc1,–,active: 11.6 µM
